Consider 40 compounds from the supplement of paper PMC9588766.

Counter-ions that a name gives are not always drawn. ± gives the standard deviation of the averaged measurements. In all, about 2,000 compounds were measured (“cell viability relative to DMSO control (compound alone)”: median about 0.98, lowest 2% from about 0.23 on). Some of the results follow.

This experiment relates to PDC-DUC18828. Nature of the experiment: cell viability relative to DMSO control (compound alone) (fraction); PDC-DUC18828 is a patient-derived cholangiocarcinoma cell line; higher = less growth inhibition. Conditions: 1 µM; 72 h. As to the method:
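Selleck Bioactive library screen in the patient-derived FGFR2-G3BP2 fusion-positive ICC cell line PDC-DUC18828 (500 cells/well). Each compound was tested at 1 uM alone, in triplicate, for 72 h. Viability was read by CellTiter-Glo and normalised to plate DMSO controls.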
As to `CCCc1nc(C)c2c(=O)nc(-c3cc(S(=O)(=O)N4CCN(CC)CC4)ccc3OCC)[nH]n12` [Vardenafil HCl Trihydrate], the cell viability was 0.994 ± 0.022. The compound `Oc1ccc(OCc2ccccc2)cc1` [Monobenzone] registered a cell viability of 0.945 ± 0.018. To `C[C@H]1C[C@H]2[C@@H]3CCC4=CC(=O)C=C[C@]4(C)[C@@]3(F)[C@@H](O)C[C@]2(C)[C@@]1(O)C(=O)CO` [Betamethasone] belongs 0.987 ± 0.064; to `CN(C)CCOc1ccc(/C(=C(/CCCl)c2ccccc2)c2ccccc2)cc1` [Toremifene Citrate], 0.918 ± 0.043. The value for `CC(C)(Cc1ccc2ccccc2c1)NC[C@@H](O)COc1cccc(Cl)c1C#N` was 1 ± 0.069; that for `O=C(c1cn(Cc2cncn2Cc2ccc(Br)cc2)cc1-c1cccc2ccccc12)N1CCOCC1` was 0.744 ± 0.062. `CCN1CCN(C(=O)N[C@@H](C(=O)N[C@@H]2C(=O)N3C(C(=O)O)=C(CSc4nnnn4C)CS[C@H]23)c2ccc(O)cc2)C(=O)C1=O` [Cefoperazone] gave a cell viability of 1.09 ± 0.049. Take `Cc1ccc(Cl)c(Nc2ccccc2C(=O)O)c1Cl` [Meclofenamate Sodium]: the cell viability turned out to be 0.993 ± 0.025. The value for `O=C(NCCO[N+](=O)[O-])c1cccnc1` [Nicorandil] was 0.948 ± 0.02. The compound `COc1cc(O)c(CC=C(C)C)c(O)c1C(=O)/C=C/c1ccc(O)cc1` [Xanthohumol] had a cell viability of 0.925 ± 0.019.

The compound `Cc1cc(/N=N/c2ccc(S(=O)(=O)Nc3ccccn3)cc2)c(N)cc1O` displayed a cell viability of 0.8812 ± 0.0058. To `COc1ccccc1S(=O)(=O)Nc1ccc2c(c1)CN(C)C(=O)N2` belongs 0.974 ± 0.027; to `Cc1nnc(NS(=O)(=O)c2ccc(N)cc2)s1` [Sulfamethizole], 0.987 ± 0.066; to `FC(F)c1nc2ccccc2n1-c1nc(N2CCOCC2)nc(N2CCOCC2)n1`, 1.04 ± 0.079.

Compound `C[C@@H]1C[C@H]2[C@@H]3CCC4=CC(=O)C=C[C@]4(C)[C@@]3(F)[C@@H](O)C[C@]2(C)[C@@]1(O)C(=O)CO` [Dexamethasone (DHAP)] registered a cell viability of 0.999 ± 0.039. `OC1(c2ccc(Cl)c(C(F)(F)F)c2)CCN(CCCC(c2ccc(F)cc2)c2ccc(F)cc2)CC1` [Penfluridol] returned a cell viability of 0.883 ± 0.073. Take `CC(C)Oc1ccc(C(=O)N[C@H](CNC(=O)CN(C)C)Cc2ccc(-c3cn4cccc([C@H](C)O)c4n3)cc2)cc1Cl`: the cell viability was determined as 0.393 ± 0.031. To `O=C(O)CCCc1ccccc1` [Sodium Phenylbutyrate] belongs 0.976 ± 0.046. `Cc1cnc(NC(=O)C2=C(O)c3ccccc3S(=O)(=O)N2C)s1` [Meloxicam] gave a cell viability of 0.934 ± 0.032. The value for `CC1(C)O[C@@H]2C[C@H]3[C@@H]4CCC5=CC(=O)C=C[C@]5(C)[C@@]4(F)[C@@H](O)C[C@]3(C)[C@]2(C(=O)CO)O1` [Triamcinolone Acetonide] was 0.942 ± 0.062.

`CCCCCCCCCCCCCCCC(=O)O[C@@H]1[C@@H](O)[C@@H](O)[C@@H]([C@H](NC(=O)[C@@H]2C[C@@H](CCC)CN2C)[C@H](C)Cl)O[C@@H]1SC` [Clindamycin palmitate HCl] displayed a cell viability of 1.06 ± 0.028.

On to `CNc1cccc(CCOc2ccc3c(c2)CN(CC(F)(F)F)C(=O)[C@H](CC(=O)O)C3)n1`, for which the cell viability was determined as 0.85 ± 0.13. `CC(=O)Nc1ncc([N+](=O)[O-])s1` [Nithiamide]: the cell viability is 1.01 ± 0.045. As to `CCOCC(O)COc1ccc(NC(=O)CC[S+](C)C)cc1` (stereo not given) [Suplatast Tosylate], the cell viability is 1.08 ± 0.026. The value for `CN1CCN(CCOc2cc(OC3CCOCC3)c3c(Nc4c(Cl)ccc5c4OCO5)ncnc3c2)CC1` [Saracatinib (AZD0530)] was 0.878 ± 0.058. To `CCC(=O)c1c(O)cc(O)cc1O` [Flopropione] belongs 0.989 ± 0.029; to `C=CC(=O)Nc1ccc2ncnc(Nc3cccc(Br)c3)c2c1`, 0.703 ± 0.051. The value for `O=C(/C=C\n1cnc(-c2cc(C(F)(F)F)cc(C(F)(F)F)c2)n1)NNc1ccccn1` [Verdinexor (KPT-335)] was 0.407 ± 0.056; that for `CC1Cc2ccccc2N1NC(=O)c1ccc(Cl)c(S(N)(=O)=O)c1` (stereo not given) [Indapamide] was 1.04 ± 0.026; that for `O=c1cc[nH]c(=S)[nH]1` [2-Thiouracil] was 0.96 ± 0.03. `O=C(/C=C/c1ccc(CN(CCO)CCc2c[nH]c3ccccc23)cc1)NO` [LAQ824 (Dacinostat)] came in with a cell viability of 0.141 ± 0.0096.

As for `Cc1nc(-c2cn3c(n2)-c2ccc(-c4cnn(C(C)(C)C(N)=O)c4)cc2OCC3)n(C(C)C)n1`, the cell viability was determined as 0.842 ± 0.096. To `CC(C)(C)c1ccc(-c2nc3ccccc3[nH]2)cc1` belongs 0.862 ± 0.028; to `COc1ccc(S(=O)(=O)N(C(C)=O)c2ccccc2/C=C/c2cc[n+]([O-])cc2)cc1`, 0.581 ± 0.044.

Regarding `Cc1c(F)cc(C(=O)NC2CC2)cc1-c1ccc(C(=O)NCC(C)(C)C)cn1`, the cell viability was found to be 1.05 ± 0.02. The value for `O=C(NOC[C@H](O)CO)c1ccc(F)c(F)c1Nc1ccc(I)cc1F` was 0.782 ± 0.031.

The compound `CC(C)c1cc(-c2ccc(F)c3ccccc23)nc(N)n1` yielded a cell viability of 1.05 ± 0.043. The compound `Cc1cc(C)c(/C=C2\C(=O)Nc3ccccc32)[nH]1` [Semaxanib (SU5416)] came in with a cell viability of 1 ± 0.036. To `CC[C@H]1OC(=O)[C@H](C)[C@@H](O[C@H]2C[C@@](C)(OC)[C@@H](O)[C@H](C)O2)[C@H](C)[C@@H](O[C@@H]2O[C@H](C)C[C@H](N(C)C)[C@H]2O)[C@](C)(O)C[C@@H](C)[C@@H]2N[C@@H](COCCOC)O[C@H]([C@H]2C)[C@]1(C)O` [Dirithromycin] belongs 1.06 ± 0.085. The value for `O=C1CC2(CCCC2)CC(=O)N1CCCCN1CCN(c2ncccn2)CC1` [Buspirone HCl] was 0.9191 ± 0.0039.
